Source: publication PMC10726135
The other results are listed elsewhere or left out. At the low end of the ranking, values are background and their order means little. The protein was read in a cell extract, so binding may be indirect.

These sequences were tested against T1, HNF4alpha8 (COS-7 nuclear extract) (UniProt P41235-5) (assay: protein-binding microarray). Details: COS-7 nuclear extract on double-stranded Agilent 4x180k PBM; binding buffer, salt, pH and temperature not given; high values mean tight binding; double strand, one strand shown; sequences stand for … in …GCCTAGGGAGATTAGAGTATCGGTCGA.
T1 sequence: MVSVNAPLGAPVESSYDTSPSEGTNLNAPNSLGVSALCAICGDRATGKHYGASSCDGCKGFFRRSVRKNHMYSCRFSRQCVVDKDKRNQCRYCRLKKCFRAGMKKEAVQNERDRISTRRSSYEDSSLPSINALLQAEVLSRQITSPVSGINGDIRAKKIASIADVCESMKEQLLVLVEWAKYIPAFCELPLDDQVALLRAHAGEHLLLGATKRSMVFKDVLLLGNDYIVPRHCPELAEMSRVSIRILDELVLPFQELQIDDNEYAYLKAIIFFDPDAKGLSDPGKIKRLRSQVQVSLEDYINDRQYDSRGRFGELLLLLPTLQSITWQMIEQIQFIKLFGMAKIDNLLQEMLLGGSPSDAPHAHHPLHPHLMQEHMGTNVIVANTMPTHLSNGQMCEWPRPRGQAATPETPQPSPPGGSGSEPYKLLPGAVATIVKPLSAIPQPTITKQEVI

Sequence | binding signal (log2 normalized intensity)
TAAAAAAAAAAAAAAATACTCCTATCACCG | -1.27
CCAGCCTGTGGTGGGAAACTTCCACTAACT | -1.35
ATGGGGCATGACTTGTTATCACCTGCTGGA | -0.0271
AGCTATGATAAAGGTTTGGGTTGGATTTGC | 0.956
TAGAAGGCAGAGAAAGATAGGAGATAAGGG | -1.16
GGGGGTAAAGTGGATTGCTGGCCTTTTATC | 0.842
AAAGTTCAGGTTTCAAATACTCCAGTCATT | 0.305
CAAGGAAAGATAAATAGTGACAAATTGTAT | -0.0347
CTATTGCAGTAACGGCAGGGTTGTGCAGGA | 0.0813
GAAGAATAGATTCCATAGATAAGAGCTGAG | -1.31
GAGACAGCTCCACAGCTGGACTTTGGCTGC | 6.17
GGCCATGTCTCAGCCCAAGATCAAAAGGCA | -1.23
AGACAAGCTCTGTTTGTTTTGTTACACATC | 0.811
TACTGGACAGCCAGCTGGTAAATAAAGGAA | -1.22
AGTCCTCTCTCGCGAGAGCCGAAGTCTCTC | -1.26
TATTTGCTGAGGAAGACTTCATTCAGGTAG | -0.728
CCAAGATGCTAAGGCAAGATCATTCCAGGA | -1.3
AGAGGTGAGACACGTGTGCCATGCCAAAGA | -1.19
GGTCAGAAAAAGCTGACGCCCCACCCCCTC | 5.89
GTATAGTGACTTCCTTCCAAAGGTCACAGT | 5.47
CTCAAAGTTTTGTTATCTCTGCTTGCAATT | 0.44
GACTGGTTCTTGGTCAGCTCCTGGGAGATG | 0.413
TTCAACTGTGTGAGCTGATCACACCATATC | -0.113
GTAAAAACAACTGCCACTTATTGTGTTATG | 0.577

Sequence | binding signal (log2 normalized intensity)
CCTCCTTCCGCGGACGTGTTCCCACAGTGC | 0.95
CAAGCAGAACCTTGGAGGCGGCGGCTCCGG | -1.28
GAGGGGGACTGGAAGGGAGAGATAAGAAAA | -1.32
TAGAAACAAGACAGAATGATTCTCAGAAAC | -1.35
AGCAAATCCCAATTCACTGACACAAATTAT | -1.33
GGGGAGCAAAGGTTAGCAAGGGCCCCCACT | 3.27
GACCCCCACTGCCTGCCTGCCAACTCCACG | 3.35
TCTGACCTTTGGCATTGTGTTACGTCTGGT | 4.34
GTTAAAGGAGATAATGGGTGTAAGATACCT | -1.22
GTTTGAATTCTTGCCTATCCCATAGGTGAG | -1.24
CATTACTATCTGCTGGGGGCTGGGCCCCAC | -1.38
GTGGCCACAAAATGAACACCTGTTCTAATC | -1.06
AGAGGCCAGCTAAAACTGCAGATTGACTCA | -1.32
CTCCCCTCCTCCCTTGCTCACCCCACGGTT | 3.88
TTCAGGTTTGCTAATATCTGATGTTAAATC | 0.806
GAAATAGTGAGACAGACATGCGACATGAGG | -1.19
GGAGGCTGCAGCGCCACATTCTGAGCCAGC | -1.17
GAAACAACACCAGCAATCACCTACCCCCAG | 3.67
TCACACGGGGATGGCAGACGGGGCTCTCAG | -0.671
AAAAATGGGCTGGGACTCATTTATGGAGGA | -1.13
GAGCATATGTATGTCAGAGTATGTGTGTAT | 1.92
TCAGAAGCCACCAGTGCAAATATAAAAGGC | -1.16
AGAATTCGATTGTTTAGGAGCCAATTATGC | -0.642
AGCTTCCAGAATAGCCTCTGCAACTCAGAG | -0.966

Sequence | binding signal (log2 normalized intensity)
ACAGATAAGATTTGGAAAATATTGCCAATA | -1.41
GAGGCAGGACCTTGGGAAAGGAGAAGCTGG | -1.37
TTGATATTTATCAAGATGAACTTTGACCCA | 11.2
TAATTAAGACTCAGTCGGCTGTCAAATCAC | -1.38
TTGTAGCTCTCAGCTCCTACATTACACTCC | -1.37
AGATTCCAGGGGAGGGTAAGAGTCCAACTT | 4.33
CCCGGCCAACGGTCGGAAGGGAGGTGCCAT | -1.24
CTCGGCATTCAGACAGACCCAGGGGAATAA | -0.898
GCCACCTTGGTGAGAGATTAAACATGCTCT | -1.14
TACAGTCAGAGGCCTGAAGGCCCCCAGGTA | 2.1
GTACTGGGACTGTGCAGACAAGATATGAGG | -1.3
TGCTGAAGATAAGACTTCCTCAGATAACCC | -0.357
CAAGGGATCGTCCAAATACCTAGCTGTTTG | -1.42
ACGGCTGCTGTAACAAGTGGCTATAAACTA | -1.22
AGCTGGGGTGCCTGATAATGACTCTTGAAC | 2.4
CCTTTTTGCATGAGAATCTGACCTTTGGTT | 7.1
TTAGGAATGCAACTCTAACCTTTACCTTCT | 2.93
GCCACCATTGATCTAACAGGAGGTGGAGCT | -1.49
AGTGTGACCCTGAACCTACAGCCCCTGTGG | 0.0394
TTCAATTTTTTTGTTGTTATCCATTTAAAA | 1.85
CTAAATCTGAATAGAACTCAGGAAAGATCA | -0.143
TCCTGGTGCAGGGGGCGAGCATGGCCGCTC | -1.32
CATCCTGACCATCTGCGAAATGGGGATAAA | -1.2
CTTTAGCTCAGCGGTTACTTCGAGTACATT | 1.01

Sequence | binding signal (log2 normalized intensity)
GAACCATTTGTGAGGATGGGCAGTCCCTAT | -0.279
CACCTTTTGGCTGTAGAAAGACTAAAGTTC | 2.69
GATCTCCCCACATTCCAACACAGGGTCAAT | 3.48
GCTGTGTGACTCACCTTTGCTCTGATCTTT | 3.68
CAGTTTGGCTTCTGACCTTTGGCATTGTGT | 6.55
CCAAATCCCTGCCCACATCCATTTTCTATC | 0.646
AGGTCAGAGGACTTCCAAAGCCCCTTTCCA | 0.63
GGATAAGTCTGTCTTGCTGTTTTTCCAGTT | 1.6
AAATGCCTTCAGGGGCATTTGAGTACATGC | 0.889
AGTTTCTTCACTGACGAAACTCACATACTG | -1.33
CTCCTGGTTGGGGCCTCCCTCCGTGGGGCT | -1.41
TACTATGCAATAACCAGGGAGTGGCAGCAT | -1.3
AAGTTCCACATCAAGCACATTCCAGAACCA | -1.42
GGGGGTAGGTGGAGTGAGGGAGGGGGGCTG | -1.27
AAAGCCCTAGCTGACTGCGTCAGGCAGTTG | -1.41
GGTCACGTGCCGCTGCGGGTCACGTGCCGC | 1.03
TACAGATATTCTGAGACAACACTCAGGATA | -1.26
TTTTCTCCTTTCCTCCTATGTCAATAGAGC | 0.835
AGCGATCATGGGTGACCCGTTAAGAATGAG | 1.24
GGCCGTATCAGAAGAACTGCACTGTATCTT | -0.024
CCTCAGAGATGTTTAGTGAGCTGTCTAATT | 0.3
